Measurements as given in PubChem BioAssay AID1671194 (National Center for Advancing Translational Sciences (NCATS), 2021).
The campaign covered roughly 140,000 compounds. About 240 (0.17%) were called active. This list was built around the results that the source calls inconclusive (neither active nor inactive); the mix of calls is not that of the screen. Calls follow the shape of the dose curve; as a rule, active = well fitted inhibition curve with a large enough effect; inconclusive = small, poorly fitted or top-dose-only effect; inactive = no such curve, though single readings can be large or run the other way. Potencies of inconclusive entries are doubtful fits and often do not repeat.

Assay: Primary qHTS assay for inhibitors of alpha-synuclein gene (SNCA) expression; also: nearly all actives have a fitted effect of over 45% in size;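 as to activity change, negative = inhibition: plate controls were DMSO cells for no effect and cell-free wells for full effect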
Details: HEK-293 SNCA-luciferase knock-in, luminescence, 24 h; activity change, negative = inhibition: at 57.2 µM (top of the series) unless noted
Potency is read from the fitted curve at half-maximal effect; tags tell the direction and shape of the fitted curve.

**Q.** For `CSCCC(NS(=O)(=O)c1ccc2c(c1)oc(=O)n2C)C(=O)NCCc1ccc(C)cc1` (stereo unspecified), which Potency is on record?
**A.** The Potency was inconclusive: 7.08 µM [inhibitor, single point].

**Q.** Which “activity change, negative = inhibition” value does the source give for `O=C(NCC1CCCCC1)c1cc2n(n1)CC(c1ccc(Cl)cc1)OC2` (stereo unspecified) here?
**A.** The value was inactive: -2.29%.

**Q.** With `Cc1cccc(CN2C(=O)c3ccccc3Sc3ccc(C(=O)N4CCCC4)cc32)c1` as the molecule, how does the Potency read?
**A.** Its Potency is inconclusive: 35.5 µM [inhibitor, single point].

**Q.** Which Potency does the source give for `O=C(Nc1cc(Cl)cc(Cl)c1)c1ccc(F)c(S(=O)(=O)NC2CCCC2)c1` here?
**A.** Its Potency is inconclusive: 39.8 µM [inhibitor, single point].

**Q.** Which Potency does the source give for `Cc1cccc(-c2noc([C@@H]3Cc4nc[nH]c4CN3C(=O)c3ccc(F)cc3)n2)c1` here?
**A.** The Potency was inconclusive: 2.24 µM [inhibitor, full curve, poor fit].

**Q.** With `Cc1nc(CN2CCCC(c3[nH]ncc3Cc3ccccc3)C2)co1` (stereo unspecified) as the molecule, how does the Potency read?
**A.** Its Potency is inconclusive: 4.47 µM [inhibitor, partial curve, poor fit].

**Q.** With `Cc1ccc(S(=O)(=O)N2CCCN(C)c3ccccc32)cc1F` as the molecule, how does the Potency read?
**A.** The Potency was inconclusive: 39.8 µM [inhibitor, single point].

**Q.** With `COc1ccc2[nH]c(C[C@@H]3C[C@@H](C(C)C)[C@H](CN(Cc4ccccn4)Cc4ccccn4)C=C3C)nc2n1` as the molecule, how does the Potency read?
**A.** The Potency was inconclusive: 31.6 µM [inhibitor, single point].

**Q.** Which Potency does the source give for `Cn1cc(CN2C[C@@H]3C[C@H](C2)c2ccc(NC(=O)COc4ccccc4)c(=O)n2C3)c2ccccc21` here?
**A.** The Potency was inconclusive: 39.8 µM [inhibitor, single point].

**Q.** For `Cc1cn2nc(C(=O)Nc3ccc4c(c3)OCO4)cc2c(N2CCCC2)n1`, which “activity change, negative = inhibition” value is on record?
**A.** The value was inactive: 44.2%.

**Q.** With `Cc1noc(C)c1[S+](=O)([O-])N1CCn2ncc(C(=O)NCc3ccc(Cl)nc3)c2C1` as the molecule, how does the Potency read?
**A.** The Potency was inconclusive: 5.62 µM [inhibitor, single point].

**Q.** For `COc1cccc([S+](=O)([O-])N2CCCC2C(=O)N2CCC(N3CCCC3=O)CC2)c1` (stereo unspecified), which Potency is on record?
**A.** The Potency was “inactive”.

**Q.** With `COc1ccccc1Nc1nn2c(=O)c3ccc(C(=O)NCc4cccs4)cc3nc2s1` as the molecule, how does the Potency read?
**A.** Its Potency is inconclusive: 7.08 µM [inhibitor, single point].

**Q.** For `O=C1CN(C(=O)c2cccc(Br)c2)C(c2ccccc2)c2cc(Cl)ccc2N1` (stereo unspecified), which Potency is on record?
**A.** The Potency was inconclusive: 39.8 µM [inhibitor, single point].

**Q.** With `O=C(Nc1ncc(-c2cccc(F)c2)c2c1OCC2)c1ccc(F)c(Cl)c1` as the molecule, how does the “activity change, negative = inhibition” value read?
**A.** The value was inactive: 41.8% [at 87.6 µM].

**Q.** For `Cc1nc([C@H]2CCN(Cc3cn(C)c4ccccc34)C[C@H]2NC(=O)C2CC2)n[nH]1`, which Potency is on record?
**A.** The Potency was inconclusive: 28.2 µM [inhibitor, single point].

**Q.** Which Potency does the source give for `Cc1ccc(OC(=O)CSc2nnc(-c3ccc4c(c3)OCO4)o2)c(C)c1` here?
**A.** The Potency was inconclusive: 15.8 µM [inhibitor, single point].

**Q.** For `O=C(NCC1(COc2ccccc2)C[C@@H](O)[C@@H](O)C1)C1CCOCC1` (stereo partly specified), which Potency is on record?
**A.** Its Potency is inconclusive: 8.91 µM [inhibitor, full curve].

**Q.** Which “activity change, negative = inhibition” value does the source give for `COc1ccc(CCNC(=O)c2nnn3c2COC(c2ccc(C)cc2)C3)cc1OC` (stereo unspecified) here?
**A.** The value was inactive: -27.4%.

**Q.** Which Potency does the source give for `COc1ccc(Cl)cc1NC(=O)C(=O)NCc1ccc(Cl)cc1` here?
**A.** The Potency was inconclusive: 12.6 µM [inhibitor, partial curve, poor fit].

**Q.** With `Cc1cc(C)c2oc(C(=O)NCCc3ccc(S(N)(=O)=O)cc3)cc(=O)c2c1` as the molecule, how does the Potency read?
**A.** Its Potency is inconclusive: 2.82 µM [inhibitor, full curve].

**Q.** For `COC(=O)C1=C(C)NC(C)=C(C(=O)OC(C)(C)CN(C)CCC(c2ccccc2)c2ccccc2)C1c1cccc([N+](=O)[O-])c1` (stereo unspecified), which Potency is on record?
**A.** Its Potency is inconclusive: 39.8 µM [inhibitor, single point].

**Q.** With `O=C(COc1cccc(-n2cnnc2)c1)NC1CCCc2c1[nH]c1ccccc21` (stereo unspecified) as the molecule, how does the Potency read?
**A.** The Potency was inconclusive: 14.1 µM [inhibitor, partial curve].

**Q.** With `COc1ccc(F)cc1-c1cccc(C(=O)NCCNC(=O)c2cccc(Cl)c2)c1` as the molecule, how does the Potency read?
**A.** Its Potency is inconclusive: 5.62 µM [inhibitor, single point].

**Q.** With `O=C(NCc1ccccn1)C1CCN(Cc2cc3n(n2)CCCNC3)CC1` as the molecule, how does the “activity change, negative = inhibition” value read?
**A.** The value was inactive: 14.4%.

**Q.** With `CC(C)Cc1nn2cc(-c3cccc(Br)c3)nc2s1` as the molecule, how does the Potency read?
**A.** The Potency was inconclusive: 17.8 µM [inhibitor, single point].

**Q.** With `CC(=O)NC1(C)CCN(Cc2ccccc2-c2ccccc2Oc2ccccc2)C1` (stereo unspecified) as the molecule, how does the Potency read?
**A.** The Potency was inconclusive: 25.1 µM [inhibitor, single point].

**Q.** For `O=Cc1ccccc1-c1cccc(O)c1`, which “activity change, negative = inhibition” value is on record?
**A.** The value was inactive: -27.4% [at 87.6 µM].

**Q.** With `COc1cccc(-c2c(C(=O)Nc3cccc(Cl)c3)nc3sccn23)c1` as the molecule, how does the “activity change, negative = inhibition” value read?
**A.** Its value is inactive: -29.6%.

**Q.** For `CC#CCn1cc2c3c(cccc31)[C@H](CC(C)C)N[C@H](C(=O)N1CCN(C)CC1)C2`, which “activity change, negative = inhibition” value is on record?
**A.** The value was inactive: -10.8% [at 87.6 µM].

**Q.** Which Potency does the source give for `CC(C)c1cccc(NC(=O)CN2C(=O)NC(c3ccccc3Cl)C3=C2COC3=O)c1` (stereo unspecified) here?
**A.** Its Potency is inconclusive: 8.91 µM [inhibitor, full curve, poor fit].

**Q.** For `CC1(C(=O)NCc2cccnc2)CCc2cnc(NCc3ccccc3)nc21` (stereo unspecified), which Potency is on record?
**A.** The Potency was inconclusive: 56.2 µM [inhibitor, single point].

**Q.** For `CCC(=O)N1CCC(c2ncc(C)n2Cc2ccccc2)C1` (stereo unspecified), which “activity change, negative = inhibition” value is on record?
**A.** Its value is inactive: 15%.

**Q.** Which Potency does the source give for `COc1ccc(CC(=O)N2CCc3nc(C(C)C)nc(-c4ccc(OC)cc4)c3CC2)cc1` here?
**A.** Its Potency is inconclusive: 11.2 µM [inhibitor, partial curve, poor fit].

**Q.** For `COCCNc1ncccc1-c1noc([C@@H]2CCCN2Cc2cc(OC)c(OC)c(OC)c2)n1`, which “activity change, negative = inhibition” value is on record?
**A.** The value was inactive: 12.7%.

**Q.** With `CC(=O)Nc1ccc(NC(=O)c2csnn2)cc1` as the molecule, how does the Potency read?
**A.** The Potency was inconclusive: 39.8 µM [inhibitor, single point].

**Q.** With `CC1=C[C@@H](CNC(=O)CCC(=O)O)[C@H](C(C)C)C[C@H]1CC(=O)N(C)Cc1ccccc1` as the molecule, how does the Potency read?
**A.** Its Potency is inconclusive: 11.2 µM [inhibitor, single point].

**Q.** For `Cc1ccc(NC(=O)N2CCCC(c3nc(-c4cccnc4)no3)CCNC(=O)CC2)cc1C` (stereo unspecified), which “activity change, negative = inhibition” value is on record?
**A.** The value was inactive: -6.98%.

**Q.** Which Potency does the source give for `Cc1ccc(C2=NC3(CCN(C(=O)CCc4ccccc4)CC3)ON2)cc1` here?
**A.** Its Potency is inconclusive: 8.91 µM [inhibitor, single point].

**Q.** With `O=C(CCc1cc2n(n1)CCNC2)N1CCN(C(=O)c2cccs2)CC1` as the molecule, how does the Potency read?
**A.** Its Potency is inconclusive: 7.08 µM [inhibitor, full curve].

**Q.** With `COc1ccc(CCNC(=O)c2cnn(-c3cccc(C)c3)c2C2CCNCC2)cc1OC` as the molecule, how does the Potency read?
**A.** The Potency was inconclusive: 17.8 µM [inhibitor, partial curve, poor fit].
